Experimental data as given in patent US8729064B2, “Heteroaromatic and aromatic piperazinyl azetidinyl amides as monoacylglycerol lipase inhibitors” (Janssen Pharmaceutica, NV, priority 2009, dated 2014).
pIC50, pKd: −log10 of the molar value.

Tests used:
[1] = target: T1, purified mutant MGL (mut-MGLL 11-313 L179S L186S) (Homo sapiens, UniProt Q99685, L169S/L176S); test: MGL Enzyme Activity Assay (4MU-B cleavage, rate-based fluorescence); assay type: biochemical; conditions: substrate 4MU-B 10 μM, enzyme 5 nM, 37° C., pH 7; read-out: Example 2 IC50
T1 sequence (Q99685 1-303 L169S/L176S): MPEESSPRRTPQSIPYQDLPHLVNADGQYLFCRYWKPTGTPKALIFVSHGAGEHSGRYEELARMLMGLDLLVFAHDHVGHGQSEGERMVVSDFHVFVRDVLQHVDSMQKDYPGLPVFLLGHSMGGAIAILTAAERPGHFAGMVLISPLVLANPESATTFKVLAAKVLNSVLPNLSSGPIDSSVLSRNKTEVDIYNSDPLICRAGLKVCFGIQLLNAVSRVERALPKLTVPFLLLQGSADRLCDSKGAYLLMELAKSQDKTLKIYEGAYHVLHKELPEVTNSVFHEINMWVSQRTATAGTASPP

[2] = target: T1, purified mutant MGL (mut-MGLL 11-313 L179S L186S); assay type: binding; conditions: ThermoFluor, 1,8-ANS dye, pH 7.0; read-out: Example 3 Kd

SMILES | pIC50 [1] | pKd [2]
CC(C)(C)c1nc2ccc(C(=O)N3CC(N4CCN(c5ccccn5)CC4)C3)cc2o1 [Compound 19, (2-tert-Butyl-benzooxazol-6-yl)-[3-(4-pyridin-2-yl-piperazin-1-yl)-azetidin-1-yl]-methanone] | 5.97 | 6.76
CC(C)Cn1c(-c2ccccc2)cc2cc(C(=O)N3CC(N4CCN(c5ccccn5)CC4)C3)ccc21 [Compound 13, (1-Isobutyl-2-phenyl-1H-indol-5-yl)-[3-(4-pyridin-2-yl-piperazin-1-yl)-azetidin-1-yl]-methanone] | 6.37 | 7.52
Cn1c(CC2CCCC2)cc2cc(C(=O)N3CC(N4CCN(c5ccccn5)CC4)C3)ccc21 [Compound 12, (2-Cyclopentylmethyl-1-methyl-1H-indol-5-yl)-[3-(4-pyridin-2-yl-piperazin-1-yl)-azetidin-1-yl]-methanone] | 6.44 | 5.30
O=C(c1ccc2nc(C3CCCCC3)oc2c1)N1CC(N2CCN(c3ccccn3)CC2)C1 [Compound 2, (2-Cyclohexyl-benzooxazol-6-yl)-[3-(4-pyridin-2-yl-piperazin-1-yl)-azetidin-1-yl]-methanone] | 7.30 | 6.89
COc1ccccc1N1CCN(C2CN(C(=O)c3ccc4c(c3)cc(Cc3ccccc3)n4CC(C)C)C2)CC1 [Compound 21, (2-Benzyl-1-isobutyl-1H-indol-5-yl)-{3-[4-(2-methoxy-phenyl)-piperazin-1-yl]-azetidin-1-yl}-methanone] | 5.85 | 5.18
O=C(c1cccc2nc(-c3ccc(F)cc3)oc12)N1CC(N2CCN(c3ccccn3)CC2)C1 [Compound 6, [2-(4-Fluoro-phenyl)-benzooxazol-7-yl]-[3-(4-pyridin-2-yl-piperazin-1-yl)-azetidin-1-yl]-methanone] | 7.00 | 7.32
COc1ccc(-c2nc3cccc(C(=O)N4CC(N5CCN(c6ccccn6)CC5)C4)c3o2)cc1 [Compound 7, [2-(4-Methoxy-phenyl)-benzooxazol-7-yl]-[3-(4-pyridin-2-yl-piperazin-1-yl)-azetidin-1-yl]-methanone] | 6.73 | 7.08
CC(C)Cn1c(COc2ccccc2)cc2cc(C(=O)N3CC(N4CCN(c5ccccn5)CC4)C3)ccc21 [Compound 9, (1-Isobutyl-2-phenoxymethyl-1H-indol-5-yl)-[3-(4-pyridin-2-yl-piperazin-1-yl)-azetidin-1-yl]-methanone] | 6.64 | 7.40
COc1ccccc1Cc1nc2cc(C(=O)N3CC(N4CCN(c5ccccn5)CC4)C3)ccc2o1 [Compound 15, [2-(2-Methoxy-benzyl)-benzooxazol-5-yl]-[3-(4-pyridin-2-yl-piperazin-1-yl)-azetidin-1-yl]-methanone] | 6.33 | 5.73
COCC(=O)c1c(-c2ccc(C)cc2)[nH]c2ccc(C(=O)N3CC(N4CCN(c5ccccn5)CC4)C3)cc12 [Compound 27, 2-Methoxy-1-{5-[3-(4-pyridin-2-yl-piperazin-1-yl)-azetidine-1-carbonyl]-2-p-tolyl-1H-indol-3-yl}-ethanone] | 5.02 | 4.54
COc1cccc(-c2nc3cc(C(=O)N4CC(N5CCN(c6ccccn6)CC5)C4)ccc3o2)c1 [Compound 20, [2-(3-Methoxy-phenyl)-benzooxazol-5-yl]-[3-(4-pyridin-2-yl-piperazin-1-yl)-azetidin-1-yl]-methanone] | 5.87 | 5.25
CC(C)(C)Cn1c(-c2ccccc2)cc2cc(C(=O)N3CC(N4CCN(c5ccc(F)cc5)CC4)C3)ccc21 [Compound 25, [1-(2,2-Dimethyl-propyl)-2-phenyl-1H-indol-5-yl]-{3-[4-(4-fluoro-phenyl)-piperazin-1-yl]-azetidin-1-yl}-methanone] | 5.42 | 5.18
COc1ccccc1N1CCN(C2CN(C(=O)c3ccc4c(c3)cc(COc3ccccc3)n4CC(C)(C)C)C2)CC1 [Compound 22, [1-(2,2-Dimethyl-propyl)-2-phenoxymethyl-1H-indol-5-yl]-{3-[4-(2-methoxy-phenyl)-piperazin-1-yl]-azetidin-1-yl}-methanone] | 5.78 | 5.25
COc1ccccc1N1CCN(C2CN(C(=O)c3ccc4c(c3)cc(COc3ccccc3)n4CC(C)C)C2)CC1 [Compound 17, (1-Isobutyl-2-phenoxymethyl-1H-indol-5-yl)-{3-[4-(2-methoxy-phenyl)-piperazin-1-yl]-azetidin-1-yl}-methanone] | 6.06 | 5.40
CCCc1cc2cc(C(=O)N3CC(N4CCN(c5ccccn5)CC4)C3)ccc2n1CC1CCCCC1 [Compound 28, (1-Cyclohexylmethyl-2-propyl-1H-indol-5-yl)-[3-(4-pyridin-2-yl-piperazin-1-yl)-azetidin-1-yl]-methanone] |  | 7.05
CC(C)(C)Cn1c(C(C)(C)C)cc2cc(C(=O)N3CC(N4CCN(c5ccccn5)CC4)C3)ccc21 [Compound 26, [2-tert-Butyl-1-(2,2-dimethyl-propyl)-1H-indol-5-yl]-[3-(4-pyridin-2-yl-piperazin-1-yl)-azetidin-1-yl]-methanone] | 5.26 | 4.95
O=C(c1ccc2[nH]c(CC3CCCCC3)cc2c1)N1CC(N2CCN(c3ccccn3)CC2)C1 [Compound 14, (2-Cyclohexylmethyl-1H-indol-5-yl)-[3-(4-pyridin-2-yl-piperazin-1-yl)-azetidin-1-yl]-methanone] | 6.36 | 5.30
O=C(c1cccc2nc(-c3cccc(F)c3)oc12)N1CC(N2CCN(c3ccccn3)CC2)C1 [Compound 3, [2-(3-Fluoro-phenyl)-benzooxazol-7-yl]-[3-(4-pyridin-2-yl-piperazin-1-yl)-azetidin-1-yl]-methanone] | 7.26 | 7.04
O=C(c1ccc2c(c1)cc(Cc1ccccc1)n2CC1CCCCC1)N1CC(N2CCN(c3ccccn3)CC2)C1 [Compound 18, (2-Benzyl-1-cyclohexylmethyl-1H-indol-5-yl)-[3-(4-pyridin-2-yl-piperazin-1-yl)-azetidin-1-yl]-methanone] | 6.04 | 7.30
O=C(c1ccc2c(c1)cc(COc1ccccc1)n2CC1CCCCC1)N1CC(N2CCN(c3ccccn3)CC2)C1 [Compound 11, (1-Cyclohexylmethyl-2-phenoxymethyl-1H-indol-5-yl)-[3-(4-pyridin-2-yl-piperazin-1-yl)-azetidin-1-yl]-methanone] | 6.46 | 8.00
CC(C)(C)Cn1c(COc2ccccc2)cc2cc(C(=O)N3CC(N4CCN(c5ccccn5)CC4)C3)ccc21 [Compound 1, [1-(2,2-Dimethyl-propyl)-2-phenoxymethyl-1H-indol-5-yl]-[3-(4-pyridin-2-yl-piperazin-1-yl)-azetidin-1-yl]-methanone] | 7.51 | 9.00
CC(C)(C)Cn1c(-c2ccccc2)cc2cc(C(=O)N3CC(N4CCN(c5ccccn5)CC4)C3)ccc21 [Compound 10, [1-(2,2-Dimethyl-propyl)-2-phenyl-1H-indol-5-yl]-[3-(4-pyridin-2-yl-piperazin-1-yl)-azetidin-1-yl]-methanone] | 6.48 | 7.70
Cc1ccc(-c2cc3cc(C(=O)N4CC(N5CCN(c6ccccn6)CC5)C4)ccc3n2CC(C)C)cc1 [Compound 4, (1-Isobutyl-2-p-tolyl-1H-indol-5-yl)-[3-(4-pyridin-2-yl-piperazin-1-yl)-azetidin-1-yl]-methanone] | 7.22 | 8.70
CC(C)Cc1cc2cc(C(=O)N3CC(N4CCN(c5ccccn5)CC4)C3)ccc2n1CC(C)C [Compound 8, (1,2-Diisobutyl-1H-indol-5-yl)-[3-(4-pyridin-2-yl-piperazin-1-yl)-azetidin-1-yl]-methanone] | 6.66 | 6.48
COc1ccccc1N1CCN(C2CN(C(=O)c3ccc4c(c3)cc(-c3ccccc3)n4CC(C)(C)C)C2)CC1 [Compound 24, [1-(2,2-Dimethyl-propyl)-2-phenyl-1H-indol-5-yl]-{3-[4-(2-methoxy-phenyl)-piperazin-1-yl]-azetidin-1-yl}-methanone] | 5.70 | 5.30
COc1ccccc1N1CCN(C2CN(C(=O)c3ccc4c(c3)cc(Cc3ccccc3)n4CC3CCCCC3)C2)CC1 [Compound 23, (2-Benzyl-1-cyclohexylmethyl-1H-indol-5-yl)-{3-[4-(2-methoxy-phenyl)-piperazin-1-yl]-azetidin-1-yl}-methanone] | 5.72 | 5.60
